In a collection of fitness landscapes (doi:10.1126/science.1257360) one finds enrichment ratio data, which are given here for 153 variants.

The list shows a part of the results.

Sequences and labels used below:
B1: PhoQ; a variant is named by its letters at X, in order, P23837 (parent)
chain: MKKLLRLFFPLSLRVRFLLATAAVVLVLSLAYGMVALIGYSVSFDKTTFRLLRGESNLFYTLAKWENNKLHVELPENIDKQSPTMTLIYDENGQLLWAQRDVPWLMKMIQPDWLKSNGFHEIEADVNDTSLLLSGDHSIQQQLQEVREDDDDAEMTHSVAVNVYPATSRMPKLTIVVVDTIPVELKSSYMVWSWFIYVLSANLLLVIPLLWVAAWWSLRPIEALAKEVRELEEHNRELLNPATTRELTSLVRNLNRLLKSERERYDKYRTTLTDLTHSLKTPLXXLQXXLRSLRSEKMSVSDAEPVMLEQISRISQQIGYYLHRASMRGGTLLSRELHPVAPLLDNLTSALNKVYQRKGVNISLDISPEISFVGEQNDFVEVMGNVLDNACKYCLEFVEISARQTDEHLYIVVEDDGPGIPLSKREVIFDRGQRVDTLRPGQGVGLAVAREITEQYEGKIVAGESMLGGARMEVIFGRQHSAPKDE

The variants in this experiment derive from B1. Briefly: enrichment ratio after two sorts for PhoP signalling (ratio (wild type AVST 3.29)); higher = more functional. The settings on record: with PhoP (E. coli).
On to LPHA, for which the enrichment ratio is not above 0.25.

Take EYDT: the enrichment ratio is not above 0.25.

RERA: the enrichment ratio was not above 0.25.

Regarding GLDM, the enrichment ratio was not above 0.25.

Turning to PCMY, the enrichment ratio is not above 0.25.

Take TWQF: the enrichment ratio is not above 0.25.

As for GCLS, the enrichment ratio worked out at 19.3.

Turning to RSFI, the enrichment ratio is not above 0.25.

VDQE: the enrichment ratio is not above 0.25.

With YSEK, the enrichment ratio is not above 0.25.

In the case of SADH, the enrichment ratio is not above 0.25.

On to LMYL, for which the enrichment ratio is not above 0.25.

For the variant WTYR, the enrichment ratio is not above 0.25.

For ESPF, the enrichment ratio is not above 0.25.

As for EAQK, the enrichment ratio is not above 0.25.

For DPLW, the enrichment ratio stood at 1.04.

With IWHE, the enrichment ratio is not above 0.25.

As for ASSD, the enrichment ratio is not above 0.25.

Take IGYY: the enrichment ratio was not above 0.25.

Take YFNT: the enrichment ratio is not above 0.25.

For INWP, the enrichment ratio was not above 0.25.

For the variant DPLF, the enrichment ratio was not above 0.25.

As for QNIS, the enrichment ratio was not above 0.25.

KYWT: the enrichment ratio was not above 0.25.

For the variant FCRV, the enrichment ratio was not above 0.25.

Consider VICK, for which the enrichment ratio is not above 0.25.

With PAMK, the enrichment ratio is not above 0.25.

As for PVYF, the enrichment ratio was not above 0.25.

MPHC: the enrichment ratio was not above 0.25.

Take PHQN: the enrichment ratio is not above 0.25.

Take ETHC: the enrichment ratio is not above 0.25.

As to YYNT, the enrichment ratio was not above 0.25.

In the case of KQTK, the enrichment ratio is not above 0.25.

With RAGY, the enrichment ratio is not above 0.25.

SCCR: the enrichment ratio is 4.7.

Turning to SMSR, the enrichment ratio was not above 0.25.

SAWD: the enrichment ratio is not above 0.25.

Take PQAY: the enrichment ratio is not above 0.25.

On to WALR, for which the enrichment ratio was not above 0.25.

For the variant NNKN, the enrichment ratio was not above 0.25.

Turning to NEWR, the enrichment ratio was not above 0.25.

On to MDKW, for which the enrichment ratio was not above 0.25.

As to HEMA, the enrichment ratio is not above 0.25.

With FRMA, the enrichment ratio was not above 0.25.

With QVIK, the enrichment ratio was not above 0.25.

As to MITP, the enrichment ratio is not above 0.25.

For the variant SLPI, the enrichment ratio turned out to be 10.

For the variant QTWM, the enrichment ratio was not above 0.25.

Take IVVD: the enrichment ratio is not above 0.25.

Turning to YKRY, the enrichment ratio is not above 0.25.

Regarding TNID, the enrichment ratio was not above 0.25.

Regarding MRED, the enrichment ratio was not above 0.25.

Consider FGKA, for which the enrichment ratio was not above 0.25.

As to ESTP, the enrichment ratio is not above 0.25.

Regarding NHQW, the enrichment ratio is not above 0.25.

Regarding HFKL, the enrichment ratio was not above 0.25.

Consider THFI, for which the enrichment ratio is not above 0.25.

Consider NWID, for which the enrichment ratio is not above 0.25.

On to YDAN, for which the enrichment ratio was not above 0.25.

With KYDR, the enrichment ratio is not above 0.25.

Turning to YPRT, the enrichment ratio is not above 0.25.

In the case of EMRY, the enrichment ratio was not above 0.25.

For LFTF, the enrichment ratio was not above 0.25.

On to HHTG, for which the enrichment ratio is not above 0.25.

For the variant FCYM, the enrichment ratio is not above 0.25.

Take AVYM: the enrichment ratio was determined as 0.267.

With NPDA, the enrichment ratio was not above 0.25.

As to PMVD, the enrichment ratio is not above 0.25.

As to QTWN, the enrichment ratio is 16.8.

Regarding TVYR, the enrichment ratio worked out at 2.14.

As to QILH, the enrichment ratio was not above 0.25.

Regarding VHRG, the enrichment ratio was not above 0.25.

Consider LNAV, for which the enrichment ratio was not above 0.25.

WFQM: the enrichment ratio was not above 0.25.

With NSIN, the enrichment ratio was not above 0.25.

As to STFI, the enrichment ratio was not above 0.25.

Turning to WPYG, the enrichment ratio was not above 0.25.

With FGEL, the enrichment ratio was not above 0.25.

Regarding NPLA, the enrichment ratio was not above 0.25.

Regarding EGIG, the enrichment ratio is not above 0.25.

Consider LHKC, for which the enrichment ratio was not above 0.25.

Turning to SSND, the enrichment ratio was not above 0.25.

With YAKY, the enrichment ratio is not above 0.25.

With RMID, the enrichment ratio is not above 0.25.

RREY: the enrichment ratio was not above 0.25.

On to MNYF, for which the enrichment ratio stood at 2.7.

For VPHF, the enrichment ratio was not above 0.25.

As for ILYI, the enrichment ratio was not above 0.25.

In the case of HICA, the enrichment ratio was not above 0.25.

As to ERRH, the enrichment ratio was not above 0.25.

MFIH: the enrichment ratio was not above 0.25.

For the variant EIES, the enrichment ratio was not above 0.25.

With MSTM, the enrichment ratio was found to be 5.94.

As to IEAF, the enrichment ratio is not above 0.25.

Turning to MWAD, the enrichment ratio is not above 0.25.

As to EMEV, the enrichment ratio is not above 0.25.

As to VFSK, the enrichment ratio was not above 0.25.

Consider ITQM, for which the enrichment ratio is not above 0.25.

For the variant FLFK, the enrichment ratio is not above 0.25.

With IPIS, the enrichment ratio was not above 0.25.

Consider QGQL, for which the enrichment ratio was not above 0.25.

In the case of HWYI, the enrichment ratio is not above 0.25.

With WYTL, the enrichment ratio was not above 0.25.

As for LLVQ, the enrichment ratio is not above 0.25.

On to VHWF, for which the enrichment ratio is not above 0.25.

With HLVS, the enrichment ratio is not above 0.25.

As to TATG, the enrichment ratio worked out at 18.

On to WSPN, for which the enrichment ratio is not above 0.25.

Regarding HTGV, the enrichment ratio is not above 0.25.

Take ARMY: the enrichment ratio was not above 0.25.

On to LRPP, for which the enrichment ratio is not above 0.25.

As for FTLD, the enrichment ratio was not above 0.25.

NWYP: the enrichment ratio is not above 0.25.

In the case of MKRP, the enrichment ratio was not above 0.25.

Turning to IDRP, the enrichment ratio is not above 0.25.

Take QRKW: the enrichment ratio is not above 0.25.

As to APRP, the enrichment ratio is not above 0.25.

Turning to EYPL, the enrichment ratio is not above 0.25.

Regarding KCVP, the enrichment ratio is not above 0.25.

As for ADFW, the enrichment ratio is not above 0.25.

Turning to ARTA, the enrichment ratio was not above 0.25.

Turning to SDLW, the enrichment ratio is not above 0.25.

As to YMGF, the enrichment ratio was not above 0.25.

Turning to LALM, the enrichment ratio is 8.02.

Turning to TKHS, the enrichment ratio is not above 0.25.

For LWMN, the enrichment ratio was not above 0.25.

Regarding FKYS, the enrichment ratio was not above 0.25.

Regarding HMDY, the enrichment ratio is not above 0.25.

Take QHGM: the enrichment ratio was not above 0.25.

As for DVWG, the enrichment ratio is not above 0.25.

Regarding PLSQ, the enrichment ratio was not above 0.25.

As to VEQW, the enrichment ratio is not above 0.25.

Turning to PCWH, the enrichment ratio was not above 0.25.

With AWCS, the enrichment ratio is not above 0.25.

As for KFCL, the enrichment ratio was not above 0.25.

In the case of FVRH, the enrichment ratio is not above 0.25.

Turning to FTPV, the enrichment ratio is not above 0.25.

For the variant TYFW, the enrichment ratio was not above 0.25.

For DMMH, the enrichment ratio was not above 0.25.

YGVW: the enrichment ratio is not above 0.25.

In the case of VWHG, the enrichment ratio is not above 0.25.

Turning to SLHC, the enrichment ratio was not above 0.25.

HATT: the enrichment ratio is not above 0.25.

In the case of KVPF, the enrichment ratio was not above 0.25.

APVK: the enrichment ratio is not above 0.25.

Turning to RYED, the enrichment ratio was not above 0.25.

As to LTVP, the enrichment ratio came to 0.369.

Turning to DWGG, the enrichment ratio was not above 0.25.

In the case of IKIR, the enrichment ratio is not above 0.25.

Take DNWL: the enrichment ratio is not above 0.25.

Take MYHF: the enrichment ratio was not above 0.25.

For the variant PQMM, the enrichment ratio was not above 0.25.

QKMV: the enrichment ratio is not above 0.25.
